# Assay results published in PubChem BioAssay AID1768 (National Center for Advancing Translational Sciences (NCATS), 2009).
# In all, about 270,000 compounds went through this assay and about 620 (0.23%) were called active. The inconclusive results got no clear call from the source; some entries with a clear call stand among them for comparison. Calls come from the whole dose curve; as a rule, active = well fitted inhibition curve with a large enough effect in the polarisation, with a control signal flat (not every such curve was filed as active); inconclusive = small, poorly fitted or top-dose-only effect, or effect the other way, or a change in a side signal; inactive = no such curve, though single readings can be large or run the other way; the % refers to the polarisation. Potencies beside an inconclusive call are fits to weak or partial responses and may not hold up. “Side channel” marks fits to a control or component signal instead of the main read-out.
# Target: Menin (Homo sapiens) (UniProt O00255)
# Assay: qHTS Assay for Inhibitors Targeting the Menin-MLL Interaction in MLL Related Leukemias: Competition With Texas Red Labeled MLL-derived Mutant Peptide; for FP activity change, negative = inhibition: % of control where 0% means no effect
# Conditions: fluorescence polarization; FP activity change, negative = inhibition: at 61.6 µM (top of the series)
# Potency is the fitted concentration of half-maximal effect; tags give direction and shape of the fitted curve or compound fluorescence and quenching.
# Chain of UniProt O00255 (O00255 whole entry, looked up): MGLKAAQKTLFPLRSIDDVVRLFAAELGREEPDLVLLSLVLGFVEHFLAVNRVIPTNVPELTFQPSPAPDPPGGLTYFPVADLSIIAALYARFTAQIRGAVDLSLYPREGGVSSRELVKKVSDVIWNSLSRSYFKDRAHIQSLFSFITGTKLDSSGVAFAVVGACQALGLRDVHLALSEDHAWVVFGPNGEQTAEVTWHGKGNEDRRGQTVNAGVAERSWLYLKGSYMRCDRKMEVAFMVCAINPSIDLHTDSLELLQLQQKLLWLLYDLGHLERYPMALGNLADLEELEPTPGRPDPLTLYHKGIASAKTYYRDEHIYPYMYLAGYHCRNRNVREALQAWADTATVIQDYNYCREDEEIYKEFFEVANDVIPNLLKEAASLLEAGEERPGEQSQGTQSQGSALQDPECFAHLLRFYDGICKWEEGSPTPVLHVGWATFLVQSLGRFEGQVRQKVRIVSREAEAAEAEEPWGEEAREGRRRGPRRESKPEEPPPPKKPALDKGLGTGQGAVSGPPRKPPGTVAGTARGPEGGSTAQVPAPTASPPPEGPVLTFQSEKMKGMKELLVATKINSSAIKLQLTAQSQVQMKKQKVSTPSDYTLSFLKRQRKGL
SMILES,Potency,"FP activity change, negative = inhibition"
CCN(CC)S(=O)(=O)c1ccc(C(=O)OCC(=O)Nc2ccc(-c3nc4ccc(C)cc4s3)cc2)cc1,"inconclusive: 2 µM [inhibitor, partial curve, poor fit]",–
CC(C)OC(=O)CN1C(=O)C(C)(C)Oc2ccc(C(=O)NC3CC3)cc21,"inconclusive: 0.708 µM [inhibitor, full curve, poor fit]",–
COC(=O)C1CSc2[nH]c(=O)sc2C1c1ccc(O)c(OC)c1 (stereo not drawn),–,inactive: 2.21%
O=C(Nc1ccc2c(c1)OCCO2)C1CCN(C(=O)c2ccc([N+](=O)[O-])cc2)CC1,"inconclusive: 22.4 µM [inhibitor, partial curve]",–
CCCCc1nc2c(c3c1C[C@H](C)OC3)CN(S(=O)(=O)c1ccc(C#N)cc1)CC2,–,inactive: 2.79% [at 11.7 µM]
Oc1c(N=Nc2ccc(F)cc2)ccc2ccccc12,"inconclusive: 31.6 µM [fluorescent, side channel, single point]",–
O=C1N=c2ccccc2=C1c1sc(NS(=O)(=O)c2ccccc2)nc1O,"inconclusive: 25.1 µM [quencher, side channel, single point]",–
Clc1ccc(CNc2ccccc2NCc2ccc(Cl)nc2)cn1,–,inactive: -1.38%
O=C(NNC(=S)Nc1cccc(C(F)(F)F)c1)c1ccccc1Cl,"inconclusive: 22.4 µM [quencher, side channel, single point]",–
Cc1cc(=O)oc2cc(OCC(=O)NCc3ccccn3)ccc12,"inconclusive: 39.8 µM [inhibitor, partial curve, poor fit]",–
O=C(CSc1nc2ccccc2o1)Nc1nc2ccc(Br)cc2s1,"inconclusive: 39.8 µM [quencher, side channel, single point]",–
COc1cccc(NC(=O)CC(=O)c2ccccc2)c1,–,inactive: 82.8%
Cc1nn(CC(=O)N2CCOCC2)c(=O)c2ccccc12,–,inactive: 6.94%
Cc1ccc(-n2nc3c(c2NC(=O)c2cccs2)CSC3)cc1,"inconclusive: 22.4 µM [inhibitor, single point]",–
CCC(=O)Nc1ccc2c(c1)ncn2-c1ccccc1C,"inconclusive: 10 µM [inhibitor, partial curve]",–
COc1ccccc1C(=O)Nc1ccc(NC(=O)C2CCCCC2)nc1,"inconclusive: 39.8 µM [fluorescent, single point]",–
COc1ccc(N2CCOCC2)c(NC(=O)COc2cccc(C)c2)c1,"inconclusive: 35.5 µM [fluorescent, side channel, partial curve]",–
OCCC1CN(Cc2nc(-c3ccccc3)cs2)CCN1CCc1ccccc1 (stereo not drawn),"inconclusive: 14.1 µM [fluorescent, side channel, partial curve]",–
Cc1ccc(-c2csc(NC(=O)c3ccc(Br)cc3)c2C(=O)O)cc1,"inconclusive: 4.47 µM [quencher, side channel, full curve]",–

SMILES,Potency,"FP activity change, negative = inhibition"
COc1ccc(/C=N/NC(=O)c2sccc2OCc2ccc(F)cc2)cc1OC,"inconclusive: 2.82 µM [inhibitor, partial curve]",–
CCOC(=O)C1=C2SCC(=O)N2C(N)=C(C#N)C1,"inconclusive: 39.8 µM [inhibitor, single point]",–
C/C(=N\NC(=O)c1ccccc1N)c1ccc(NC(=O)Cc2ccccc2)cc1,"inconclusive: 39.8 µM [inhibitor, single point]",–
O=C1/C(=C\c2c(NCCOCCO)nc3ccccn3c2=O)SC(=S)N1Cc1ccco1,"inconclusive: 14.1 µM [fluorescent, side channel, partial curve]",–
c1ccc(Nc2nc(-c3cccnc3)nc3ccccc23)cc1,–,inactive: 21.5%
NS(=O)(=O)c1ccc(CCNc2cc(=O)n(Cc3ccc(F)cc3)c(=O)[nH]2)cc1,"inconclusive: 8.91 µM [inhibitor, single point]",–
Cc1ccc(C(=O)Nc2ccccc2C(=O)O)cc1S(=O)(=O)NC1CCCCC1,"inconclusive: 7.94 µM [quencher, side channel, partial curve]",–
Cc1cccc(Nc2nnc(SC/C(O)=C(\C#N)c3nc4ccccc4[nH]3)s2)c1,"inconclusive: 10 µM [quencher, side channel, partial curve]",–
Cc1ccc(C)c(Oc2cc(NC(=O)CCCn3nc(C)c([N+](=O)[O-])c3C)cc([N+](=O)[O-])c2)c1,"inconclusive: 7.94 µM [quencher, side channel, partial curve]",–
COC(=O)C1=C(C)N(Cc2ccccc2)C(=NCc2ccccc2)N[C@H]1c1cccc(F)c1,"inconclusive: 35.5 µM [inhibitor, single point]",–
CN(C)c1ccc(-c2nccc(Nc3ccc(F)cc3)n2)cc1,"inconclusive: 11.2 µM [quencher, side channel, partial curve]",–
COc1ccccc1NC(=O)c1ccc(NC(=O)COC(=O)CCC2CCCC2)cc1,"inconclusive: 20 µM [quencher, side channel, single point]",–
COC(=O)C1(C)CC1(c1ccccc1)c1ccccc1 (stereo not drawn),"inconclusive: 3.16 µM [inhibitor, partial curve]",–
CCOC(=O)C1=C(Nc2ccc(Br)cc2)CC(C)(O)C(C(=O)OCC)C1c1ccccc1 (stereo not drawn),"inconclusive: 20 µM [inhibitor, single point]",–
O=C(Nc1cccc([N+](=O)[O-])c1)c1ccc2nc(N3C(=O)CCC3=O)sc2c1,"inconclusive: 1.41 µM [quencher, side channel, full curve]",–
O=[N+]([O-])c1cccc(N=NN(CCO)c2cccc([N+](=O)[O-])c2)c1,"inconclusive: 22.4 µM [quencher, side channel, single point]",–
COc1ccc2[nH]c(C)c(CCNC(=S)Nc3cccc(C)c3)c2c1,"inconclusive: 31.6 µM [quencher, side channel, single point]",–
O=c1[nH]c2ccccc2nc1/C=C(\O)C1CC1,"inconclusive: 5.01 µM [inhibitor, single point]",–
CCN1C(=O)/C(=C2\SC(N3CCOCC3)=NC2=O)c2ccccc21,"inconclusive: 11.2 µM [inhibitor, partial curve]",–
